The whole screen tested about 310,000 compounds, of which about 2,200 (0.71%) showed an effect of 50% or more. The effect is printed as a negative number. This is one part of the list.
These molecules were tested against human ether-à-go-go-related gene (hERG) potassium channel (human, UniProt Q12809) (assay: primary screen, population patch clamp on CHO cells stably expressing hERG).
Chain of human ether-à-go-go-related gene (hERG) potassium channel (Q12809 whole entry, looked up): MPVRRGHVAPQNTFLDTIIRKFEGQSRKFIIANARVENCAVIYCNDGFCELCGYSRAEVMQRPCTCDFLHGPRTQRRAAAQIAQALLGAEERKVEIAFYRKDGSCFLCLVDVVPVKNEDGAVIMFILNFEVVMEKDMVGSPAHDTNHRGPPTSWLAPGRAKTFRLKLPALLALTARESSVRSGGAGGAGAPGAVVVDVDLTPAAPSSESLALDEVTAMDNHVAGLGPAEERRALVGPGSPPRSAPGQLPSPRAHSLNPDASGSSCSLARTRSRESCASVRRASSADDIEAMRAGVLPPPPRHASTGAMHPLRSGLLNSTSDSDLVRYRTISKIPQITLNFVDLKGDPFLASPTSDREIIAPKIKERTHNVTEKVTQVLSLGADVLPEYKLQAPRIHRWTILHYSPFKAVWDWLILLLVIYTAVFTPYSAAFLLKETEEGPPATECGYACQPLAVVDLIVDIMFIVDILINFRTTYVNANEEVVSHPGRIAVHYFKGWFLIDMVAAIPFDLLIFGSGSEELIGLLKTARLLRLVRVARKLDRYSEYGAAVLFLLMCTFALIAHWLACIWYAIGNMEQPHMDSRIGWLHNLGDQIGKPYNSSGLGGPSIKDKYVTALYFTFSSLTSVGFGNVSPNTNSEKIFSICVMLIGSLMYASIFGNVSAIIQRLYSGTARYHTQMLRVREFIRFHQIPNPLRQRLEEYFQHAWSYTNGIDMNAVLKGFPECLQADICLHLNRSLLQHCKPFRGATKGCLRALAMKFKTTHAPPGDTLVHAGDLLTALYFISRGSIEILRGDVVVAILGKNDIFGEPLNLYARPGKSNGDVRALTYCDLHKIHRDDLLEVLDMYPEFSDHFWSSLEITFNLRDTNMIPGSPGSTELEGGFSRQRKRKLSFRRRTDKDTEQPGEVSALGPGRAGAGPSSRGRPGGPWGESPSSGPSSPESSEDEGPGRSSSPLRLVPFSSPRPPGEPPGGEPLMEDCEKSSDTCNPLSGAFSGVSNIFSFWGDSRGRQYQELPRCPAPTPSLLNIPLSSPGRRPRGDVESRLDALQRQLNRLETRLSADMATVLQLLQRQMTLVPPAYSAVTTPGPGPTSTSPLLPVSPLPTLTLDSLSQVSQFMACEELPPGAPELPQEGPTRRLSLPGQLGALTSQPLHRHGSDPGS

Point of comparison: `COc1ccc(OC)c(NC(=O)C(=O)NNC(=O)c2cccs2)c1`, “hERG current change (%, negative = inhibition) at 1uM” value 11.9%. Against it:
- Cc1nc(Cl)c(C(=O)NCCC(C)C)c(C)c1[N+](=O)[O-] — lower, 1.57%
- COc1ccc(C2(C)NC(=O)N(CC(=O)c3cc(C)n(C4CC4)c3C)C2=O)cc1OC (stereo not shown) — lower, 8.04%
- CN(CC(=O)Nc1ccccc1N1CCOCC1)S(=O)(=O)c1ccc(F)cc1 — lower, -11.9%
- Cc1cc(C)n(-c2nc(Nc3ccccc3)nc(-n3nc(C)cc3C)n2)n1 — higher, 12.1%
- Cc1cccc(NC(=O)CCCc2ccccc2)c1 — lower, 4.36%
- CC(C)S(=O)(=O)N1CCN(c2ccnc3cc(Cl)ccc23)CC1 — lower, -55.2%
- COCCn1c(SCC(=O)Nc2ccccc2OC)nc2ccccc2c1=O — lower, -3.56%
- CC(C)OC(=O)c1cccc(C(=O)OCc2ccco2)n1 — higher, 14%
- Cc1ccc(-c2cc(Cc3ccc(N(C)C)cc3)c(=O)[nH]n2)cc1 — higher, 13.3%
- CC(C)(CN1CCN(Cc2ccccc2)CC1)NS(=O)(=O)c1ccc(Cl)cc1 — lower, -35.1%
- COCCNC(=O)c1cnn2c(C(F)F)cc(-c3ccccc3)nc12 — lower, 7.77%
- COc1ccc(/C=N/N=C2/CC(C)(C)Cc3n[nH]c(=O)cc32)cc1 — lower, 6.65%
- Cc1ccc(S(=O)(=O)N(C)CC(=O)Nc2ccccc2N2CCCC2)cc1 — lower, 6.45%
- COc1ccccc1OCc1ccc(C(=O)OCC2CCCO2)o1 (stereo not shown) — lower, 7.92%
- Cc1[nH]c2ccccc2c1Cc1n[nH]c(=S)n1C — higher, 19.9%
- COc1ccccc1N1CCN(CCOc2c(OC)cccc2OC)CC1.Cl — lower, -13.6%
- O=C(CCCn1c(=O)[nH]c2ccsc2c1=O)N1CCN(Cc2ccc3c(c2)OCO3)CC1 — lower, -1.85%
- CC1CC(C)CN(S(=O)(=O)c2ccc3c(c2)CC(=O)N3)C1 (stereo not shown) — lower, -5.1%
- CCCC(=O)Nc1ccc2oc(-c3cncc(Br)c3)nc2c1 — lower, 5.87%
- Cc1ccc(C(=O)N/C(=C\c2cccs2)C(=O)NCCc2c[nH]c3ccccc23)cc1C — lower, -11.2%
- COC(=O)N1C(=O)[C@](c2ccc(OC)cc2)(C(C)C)N1C(=O)OC — higher, 15.1%
- O=C(N/N=C/c1cccc(O)c1)c1ccc(COc2ccc3c(c2)CCC3)o1 — lower, 8.22%
- COc1cc(C(=O)Nc2ccc3nc(N4CCOCC4)sc3c2)cc(OC)c1OC — lower, 0.266%
- COc1cc(NC(=O)CN2C(=O)NC(c3ccccc3)(c3ccccc3)C2=O)c(C)cc1[N+](=O)[O-] — lower, 9.69%
- Cc1nn(Cc2ccc([N+](=O)[O-])cc2)c(=O)n1-c1cccc(Cl)c1 — lower, 2.3%
- CCOC(=O)CNC(=O)CSc1nnc(NC(=O)c2ccc(S(=O)(=O)N3CCOCC3)cc2)s1 — lower, 11.3%
- Cc1nn(-c2ccccc2)c2c1C1(C(=O)N(C)c3ccccc31)N(c1ccccc1)C(=O)N2 (stereo not shown) — lower, -9.6%
- CN(C)S(=O)(=O)c1cccc(NC(=O)COC(=O)CCC(=O)c2cccs2)c1 — lower, -0.771%
- O=C(CNCC1CCCO1)N1CCCCCC1.O=C(O)C(=O)O (stereo not shown) — lower, 11.2%
- COc1ccc(C(=O)NCc2csc(C(C)C)n2)cc1OC1CCN(C(C)=O)CC1 — higher, 12.9%
- Nc1nc(-c2ccccc2)cc(C(F)(F)F)n1 — higher, 12.6%
- CCOC(=O)N1CCN(C(=O)CCn2c(=O)[nH]c3ccsc3c2=O)CC1 — lower, 11.6%
- CC(C)(C)c1ccc(S(=O)(=O)NCC(=O)N2CCN(Cc3ccccc3)CC2)cc1 — lower, 5.56%
- CN1CCN(S(=O)(=O)c2cc(Cl)c(Cl)cc2Cl)CC1 — higher, 14.5%
- COc1cc(C)c(C(=O)Oc2cc(C)c(C(=O)O)c(O)c2)c(O)c1 — higher, 14.8%
- COc1ccc(CN2CCC(C(=O)Nc3ccc(Oc4cccnc4)cc3)CC2)c(C)c1C — lower, 2.89%
- CC(C)n1c(CNC(=O)c2ccccc2)nc2ccccc21 — lower, 10%
- COc1ccc(OCC#CCn2ccnc2)cc1.O=C(O)C(=O)O — higher, 12.2%
- CSc1n[nH]c(NCc2ccc(C)cc2)n1 — lower, 11.4%
- O=C(NCCc1ccccc1)c1cccc(S(=O)(=O)NCc2ccccc2)c1 — lower, -12.7%
- CCN(CC(=O)Nc1c(F)cccc1F)C(=O)c1ccc(N2CCCCC2)c([N+](=O)[O-])c1 — lower, 3.85%
- O=C(Nc1ccc(Br)cc1)c1cccc(N2C(=O)C3C4C=CC(C4)C3C2=O)c1 (stereo not shown) — lower, 5.41%
- Cc1nc(C(=O)Nc2ccccc2)sc1C(=O)Nc1ccccc1 — lower, 10.5%
- Cc1cc(S(=O)(=O)c2ccc([N+](=O)[O-])cn2)ccc1Br — higher, 12.7%
- Nc1c(-c2ccccc2Cl)cnn1-c1cccc([N+](=O)[O-])c1 — lower, -7.78%
- Cc1ccc(CSCC(=O)N(CCC(C)C)c2c(N)n(Cc3ccccc3)c(=O)[nH]c2=O)cc1 — lower, -11.2%
- CCOC(=O)c1cc(C)n(CCc2ccccc2)c1C — higher, 12.3%
- COc1cccc(OCc2cc(C(=O)NCc3cnc4ccccn34)no2)c1 — lower, 3.98%
- Cc1noc(C)c1CSc1nnc(-c2cccnc2)n1C1CCCCC1C (stereo not shown) — lower, -7.22%
- COc1ccc(OC)c(/C=C2\SC(=S)N(NS(=O)(=O)c3ccccc3)C2=O)c1 — lower, 3.97%
- O=C(Oc1cc(-c2ccccc2)no1)c1ccc(Cl)cc1 — lower, 10.6%
- O=C(NCCCO)c1ccc2[nH]c3ccccc3c2c1 — higher, 13.4%
- COc1cc(-c2noc(C3CCCN(S(=O)(=O)c4cccc(Cl)c4)C3)n2)cc(OC)c1OC (stereo not shown) — lower, -0.0886%
- O=C(NCc1ccccc1)C1CCN(S(=O)(=O)c2cc([N+](=O)[O-])ccc2Cl)CC1 — lower, 1.19%
